Source: paper PMC4336329 (PLoS ONE, 2015)
Among all 310,000 compounds or so, about 2,200 (0.71%) showed an effect of 50% or more. The effect is printed as a negative number. Some of the results follow.

What follows are compounds tested against human ether-à-go-go-related gene (hERG) potassium channel (human, UniProt Q12809) (assay: primary screen, population patch clamp on CHO cells stably expressing hERG).
Sequence of human ether-à-go-go-related gene (hERG) potassium channel (Q12809 whole entry, looked up): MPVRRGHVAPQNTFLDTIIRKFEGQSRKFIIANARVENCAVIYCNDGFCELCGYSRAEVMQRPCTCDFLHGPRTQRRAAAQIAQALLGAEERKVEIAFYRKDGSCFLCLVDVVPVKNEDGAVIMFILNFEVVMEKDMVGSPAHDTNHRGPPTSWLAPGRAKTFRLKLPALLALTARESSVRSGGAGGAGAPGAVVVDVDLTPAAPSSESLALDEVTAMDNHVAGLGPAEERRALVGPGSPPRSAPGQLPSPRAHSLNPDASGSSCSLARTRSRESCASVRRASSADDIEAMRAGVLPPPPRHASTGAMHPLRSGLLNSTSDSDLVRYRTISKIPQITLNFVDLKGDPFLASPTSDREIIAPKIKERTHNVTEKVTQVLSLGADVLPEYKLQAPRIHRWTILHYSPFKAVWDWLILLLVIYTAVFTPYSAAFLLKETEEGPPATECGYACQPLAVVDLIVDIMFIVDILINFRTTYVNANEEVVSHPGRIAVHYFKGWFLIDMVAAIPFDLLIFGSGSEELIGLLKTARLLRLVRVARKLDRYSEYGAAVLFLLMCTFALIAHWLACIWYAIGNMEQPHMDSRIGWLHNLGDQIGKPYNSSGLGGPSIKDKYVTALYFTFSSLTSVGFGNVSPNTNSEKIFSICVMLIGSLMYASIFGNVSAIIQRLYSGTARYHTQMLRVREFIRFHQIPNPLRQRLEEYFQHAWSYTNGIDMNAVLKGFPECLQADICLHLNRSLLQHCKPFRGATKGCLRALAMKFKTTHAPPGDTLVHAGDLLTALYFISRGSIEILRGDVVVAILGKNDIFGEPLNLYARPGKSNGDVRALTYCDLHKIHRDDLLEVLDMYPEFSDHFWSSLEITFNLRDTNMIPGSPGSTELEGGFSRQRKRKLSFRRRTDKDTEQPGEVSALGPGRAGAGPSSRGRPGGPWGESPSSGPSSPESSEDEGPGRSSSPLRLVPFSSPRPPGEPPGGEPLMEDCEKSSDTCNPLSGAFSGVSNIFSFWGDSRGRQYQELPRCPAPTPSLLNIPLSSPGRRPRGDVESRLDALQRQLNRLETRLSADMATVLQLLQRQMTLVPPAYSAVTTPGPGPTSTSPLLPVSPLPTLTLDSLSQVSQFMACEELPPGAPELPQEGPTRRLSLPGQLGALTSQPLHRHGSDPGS
For `CC(=O)Nc1ccc(NC(=O)CCn2c(=O)oc3ccccc32)cc1`, the “hERG current change (%, negative = inhibition) at 1uM” value was 2.55%.
With `Cc1ccc(NCCC(=O)c2ccc(Cl)cc2)cc1` the “hERG current change (%, negative = inhibition) at 1uM” value was -0.203%.
In the case of `O=C(C1CC(=O)N(C2CCCCC2)C1)N1CCN(c2cccc(C(F)(F)F)c2)CC1` (stereo not shown), the “hERG current change (%, negative = inhibition) at 1uM” value is reported as 10.1%.
For `Cc1cc(C(=O)OCC(=O)N2CCN(C(=O)c3ccco3)CC2)c(C)n1-c1ccc(F)cc1`, the “hERG current change (%, negative = inhibition) at 1uM” value was -19.8%.
For `CC1(C)Cc2ccccc2C(/C(=N\Nc2cccc(Cl)c2)C(N)=O)=N1`, the “hERG current change (%, negative = inhibition) at 1uM” value was 4.61%.
`CN(C)CCn1c(N)nc2ccccc21` was tested, and the “hERG current change (%, negative = inhibition) at 1uM” value was 5.99%.
`COc1ccc2nc(/C=N/NC(=O)CCCCCNC(=O)OC(C)(C)C)ccc2c1` was tested, and the “hERG current change (%, negative = inhibition) at 1uM” value was 11.7%.
With `O=C(C1CCN(S(=O)(=O)c2ccc(Cl)c(C(F)(F)F)c2)CC1)N1CCC1` the “hERG current change (%, negative = inhibition) at 1uM” value was -0.875%.
In the case of `CCN(CC(=O)Nc1ccc(Cl)c(C(F)(F)F)c1)CC(=O)NC1CCS(=O)(=O)C1` (stereo not shown), the “hERG current change (%, negative = inhibition) at 1uM” value is reported as 6.9%.
For `CCOC(=O)C1CCCN(C(=O)CCC(=O)Nc2ccc3nc(N4CCOCC4)cc(C)c3c2)C1` (stereo not shown), the “hERG current change (%, negative = inhibition) at 1uM” value was -13%.
In the case of `O=C(NNS(=O)(=O)c1ccc(Cl)cc1)c1cnn(-c2ccccc2)c1-n1cccc1`, the “hERG current change (%, negative = inhibition) at 1uM” value is reported as 7.78%.
In the case of `Cc1nn(CC#N)c(=O)n1-c1ccccc1`, the “hERG current change (%, negative = inhibition) at 1uM” value is reported as 10.4%.
For `COc1cc(C(=O)NNC(=O)CN2C(=O)NC(C)(c3ccc(C)cc3)C2=O)cc(OC)c1OC` (stereo not shown), the “hERG current change (%, negative = inhibition) at 1uM” value was 3.96%.
With `Cc1cc(NS(=O)(=O)c2ccc(NC(=O)CSc3nnc(-c4ccco4)n3N)cc2)nc(C)n1` the “hERG current change (%, negative = inhibition) at 1uM” value was 6.47%.
`CCCCCCn1c(O)c(C=Nc2c(C)n(C)n(-c3ccccc3)c2=O)c(=O)[nH]c1=O` was tested, and the “hERG current change (%, negative = inhibition) at 1uM” value was 1.24%.
For `COc1ccc(-c2csc(/C(C#N)=C/Nc3ccc4c(c3)OCCO4)n2)cc1`, the “hERG current change (%, negative = inhibition) at 1uM” value was 9.07%.
For `CCOC(=O)COc1ccc(S(=O)(=O)N2CCN(C(=O)OCC)CC2)cc1`, the “hERG current change (%, negative = inhibition) at 1uM” value was 6.68%.
`CCN(CC(=O)Nc1c(F)cccc1F)C(=O)/C=C/c1cn(Cc2ccccc2)nc1-c1cccnc1` was tested, and the “hERG current change (%, negative = inhibition) at 1uM” value was 1.08%.
With `COc1ccc(C(=O)Oc2cc(C)[nH]c(=O)c2[N+](=O)[O-])cc1` the “hERG current change (%, negative = inhibition) at 1uM” value was 6.67%.
For `Cc1cccc(NC(=O)C2CCN(S(=O)(=O)c3ccc(Cl)cc3)CC2)n1`, the “hERG current change (%, negative = inhibition) at 1uM” value was 4.14%.
In the case of `O=C1Nc2ccccc2N(O)N1c1cc(-c2ccc(Cl)cc2)[nH]n1`, the “hERG current change (%, negative = inhibition) at 1uM” value is reported as 7.2%.
With `O=C(CNc1ccc2ccccc2c1)N/N=C/c1ccncc1` the “hERG current change (%, negative = inhibition) at 1uM” value was 7.41%.
With `CC12CCC(=O)N1C(C(=O)Nc1ccc(F)c(Cl)c1)CS2` (stereo not shown) the “hERG current change (%, negative = inhibition) at 1uM” value was 3.3%.
For `CCOC(=O)c1cnc2c(cnn2C)c1NCCCn1ccnc1`, the “hERG current change (%, negative = inhibition) at 1uM” value was -10.1%.
For `CCN(CC)S(=O)(=O)c1ccc(N2CCCCC2)c(NC(=O)/C=C/c2ccc(OC)c(OC)c2)c1`, the “hERG current change (%, negative = inhibition) at 1uM” value was 4.81%.
With `CCn1c(SCC(=O)NCCc2ccc(OC)c(OC)c2)nc2c1c(=O)n(C)c(=O)n2C` the “hERG current change (%, negative = inhibition) at 1uM” value was -1.45%.
With `O=c1c2[nH]c3ccccc3c2nc2n1CCS2` the “hERG current change (%, negative = inhibition) at 1uM” value was 12.8%.
`Cc1cccc(OCC(=O)NNC(=O)c2ccc3nc[nH]c3c2)c1` was tested, and the “hERG current change (%, negative = inhibition) at 1uM” value was 12.2%.
For `Cc1cc(C)nc(NC(=O)c2ccc(C)c([N+](=O)[O-])c2)n1`, the “hERG current change (%, negative = inhibition) at 1uM” value was 5.73%.
`O=C(Nc1nccs1)c1ccc2ccccc2n1` was tested, and the “hERG current change (%, negative = inhibition) at 1uM” value was 13.6%.
`O=C(CCN1C(=O)/C(=C\c2ccccc2)SC1=S)N1CCCCC1` was tested, and the “hERG current change (%, negative = inhibition) at 1uM” value was 14.1%.
In the case of `O=C(CN1CCc2ccccc21)Nc1ccc2c(c1)OCO2`, the “hERG current change (%, negative = inhibition) at 1uM” value is reported as 14.3%.
`Oc1ccc(C=Nc2cccc3ccccc23)c(O)c1` was tested, and the “hERG current change (%, negative = inhibition) at 1uM” value was 16.1%.
With `C/C=C/c1ccc(OCCCCOc2c(OC)cccc2OC)c(OC)c1` the “hERG current change (%, negative = inhibition) at 1uM” value was 6.35%.
In the case of `O=C(Nc1cc(Cl)ccc1Cl)C1Cc2ccccc2O/C1=N\O` (stereo not shown), the “hERG current change (%, negative = inhibition) at 1uM” value is reported as 14.2%.
`C=CCn1c(SCc2nc3sc4c(c3c(=O)[nH]2)CCCC4)nc2ccccc2c1=O` was tested, and the “hERG current change (%, negative = inhibition) at 1uM” value was -0.46%.
For `CC(=O)N1CCN(c2ccc(NC(=O)c3ccc(Br)o3)cc2Cl)CC1`, the “hERG current change (%, negative = inhibition) at 1uM” value was -1.25%.
`CC(C)Cn1c(=O)c2ccccc2n2c(CCC(=O)NCc3ccccn3)nnc12` was tested, and the “hERG current change (%, negative = inhibition) at 1uM” value was 18.6%.
With `Cc1ccc(-c2cc(C(=O)NN3CCOCC3)c3cc(Br)ccc3n2)o1` the “hERG current change (%, negative = inhibition) at 1uM” value was 18%.
`CS(=O)(=O)c1ccc(C(=O)NCC2(N3CCCCC3)CCCCC2)cc1` was tested, and the “hERG current change (%, negative = inhibition) at 1uM” value was 5.88%.
In the case of `COc1ccc(/C=C2\SC(=S)N(CCCC(=O)Nc3cc(C)on3)C2=O)cc1OC`, the “hERG current change (%, negative = inhibition) at 1uM” value is reported as 10.2%.
For `CCOC(=O)N1CCC(NS(=O)(=O)c2ccc3c(c2)oc(=O)n3C)CC1`, the “hERG current change (%, negative = inhibition) at 1uM” value was 5.7%.
In the case of `O=C(Nc1ccc2nn(-c3ccccc3)nc2c1)c1ccc2c(c1)OCCO2`, the “hERG current change (%, negative = inhibition) at 1uM” value is reported as 17.4%.
With `CCc1ccc2[nH]c(=O)c(CN(Cc3ccccc3OC)Cc3nnnn3Cc3ccco3)cc2c1` the “hERG current change (%, negative = inhibition) at 1uM” value was -4.81%.
`CCn1ncc(/C=N/O)c1C` was tested, and the “hERG current change (%, negative = inhibition) at 1uM” value was 10.5%.
In the case of `COc1ccccc1C1SCCN1S(C)(=O)=O` (stereo not shown), the “hERG current change (%, negative = inhibition) at 1uM” value is reported as -2.83%.
In the case of `CCCc1cc(C(=O)OC)c2ccccc2n1`, the “hERG current change (%, negative = inhibition) at 1uM” value is reported as 3.72%.
In the case of `CCCCN(C(=O)c1c(C)noc1C)c1c(N)n(CCC)c(=O)[nH]c1=O`, the “hERG current change (%, negative = inhibition) at 1uM” value is reported as 5.67%.
`O=C(O)CCC(=O)NNC(=O)CCC1CCCCC1` was tested, and the “hERG current change (%, negative = inhibition) at 1uM” value was 12.2%.
For `CC(C)OP(=O)(c1ccc(N(C)C)cc1)C(O)c1ccc(Br)cc1` (stereo not shown), the “hERG current change (%, negative = inhibition) at 1uM” value was 14.6%.
For `CCc1nc(Nc2cccc(OC)c2)c2oc3ccccc3c2n1.Cl`, the “hERG current change (%, negative = inhibition) at 1uM” value was 13.3%.
In the case of `Cc1ccc(S(=O)(=O)NC(=O)Nc2ccccc2)cc1`, the “hERG current change (%, negative = inhibition) at 1uM” value is reported as 6.92%.
For `COc1ccc(Cn2nnnc2CN(Cc2cc3cc(C)ccc3[nH]c2=O)C2CCCC2)cc1`, the “hERG current change (%, negative = inhibition) at 1uM” value was 17.7%.
With `Cc1cc(C)c2nc(N3CCC(C(=O)NCC4CCCO4)CC3)sc2c1` (stereo not shown) the “hERG current change (%, negative = inhibition) at 1uM” value was 10.5%.
With `Cc1ccc(C)c(S(=O)(=O)N2CCCC2CNC(=O)C(=O)NCCc2ccccc2)c1` (stereo not shown) the “hERG current change (%, negative = inhibition) at 1uM” value was 3.99%.
